Data from article PMC4336329 (PLoS ONE, 2015).
Out of some 310,000 compounds screened, about 14,000 (4.5%) showed an effect of 50% or more. The effect is printed as a negative number. The list shows a part of the results.

biological target: human ether-à-go-go-related gene (hERG) potassium channel (human, UniProt Q12809); assay: primary screen, population patch clamp on CHO cells stably expressing hERG
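Also: peak tail current of the secondary pulse compared with the same well before compound.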

human ether-à-go-go-related gene (hERG) potassium channel, sequence (Q12809 whole entry, looked up): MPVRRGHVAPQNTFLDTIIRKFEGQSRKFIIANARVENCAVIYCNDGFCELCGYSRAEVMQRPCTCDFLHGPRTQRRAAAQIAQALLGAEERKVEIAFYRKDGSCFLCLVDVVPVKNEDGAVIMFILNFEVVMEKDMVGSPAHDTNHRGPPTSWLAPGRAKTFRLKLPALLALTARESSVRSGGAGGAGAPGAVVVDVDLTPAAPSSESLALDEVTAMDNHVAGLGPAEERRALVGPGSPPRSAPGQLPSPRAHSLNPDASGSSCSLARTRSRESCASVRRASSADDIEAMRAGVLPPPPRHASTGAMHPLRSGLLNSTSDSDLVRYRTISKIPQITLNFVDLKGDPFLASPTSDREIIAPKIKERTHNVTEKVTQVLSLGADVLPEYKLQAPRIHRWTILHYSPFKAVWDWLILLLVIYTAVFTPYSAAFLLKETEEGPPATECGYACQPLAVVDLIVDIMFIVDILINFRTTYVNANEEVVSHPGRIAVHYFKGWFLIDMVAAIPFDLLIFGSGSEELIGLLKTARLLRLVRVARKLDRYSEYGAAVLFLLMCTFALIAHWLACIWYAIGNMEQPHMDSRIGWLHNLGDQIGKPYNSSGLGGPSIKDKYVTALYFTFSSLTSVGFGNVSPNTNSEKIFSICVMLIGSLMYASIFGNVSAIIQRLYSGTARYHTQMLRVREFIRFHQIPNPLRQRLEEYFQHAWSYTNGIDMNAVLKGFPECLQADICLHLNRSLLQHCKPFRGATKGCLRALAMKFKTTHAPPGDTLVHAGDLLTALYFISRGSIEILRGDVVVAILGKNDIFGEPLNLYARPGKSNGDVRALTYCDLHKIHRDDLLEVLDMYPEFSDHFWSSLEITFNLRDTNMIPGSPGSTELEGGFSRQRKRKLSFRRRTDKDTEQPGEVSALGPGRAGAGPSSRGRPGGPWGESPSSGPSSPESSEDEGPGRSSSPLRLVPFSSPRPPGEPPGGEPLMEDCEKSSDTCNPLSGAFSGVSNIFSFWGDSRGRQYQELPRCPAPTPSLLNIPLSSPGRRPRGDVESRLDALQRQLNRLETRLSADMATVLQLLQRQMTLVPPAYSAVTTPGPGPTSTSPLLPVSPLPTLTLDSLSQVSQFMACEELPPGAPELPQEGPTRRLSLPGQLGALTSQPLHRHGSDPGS

Row | SMILES | hERG current change (%, negative = inhibition) at 10uM [%]
1 | O=[N+]([O-])c1ccc(-c2ccn[nH]2)o1 | 14.8
2 | O=C(Cn1cnc2c(nnn2-c2cccc(Cl)c2)c1=O)N1CCOCC1 | -25.3
3 | CCCOC(=O)/C(=C\C=C\c1ccco1)NC(=O)c1ccccc1 | 17.4
4 | COc1cccc(-c2nc(Oc3cccc(C)c3C)c3ccccc3n2)c1O | 17.6
5 | Cc1nn(-c2ccccc2)c(C)c1/C=N/NC(=O)CSc1nnc(SCc2ccc(Cl)cc2)s1 | 4.89
6 | NS(=O)(=O)c1cc(C(=O)OCC(=O)N2CCc3ccccc3C2)ccc1Cl | -14.8
7 | Cc1cccc2c1NC(=O)/C2=C\C(=O)c1cccs1 | 1.97
8 | CN1CCN(CCCNC(=S)Nc2ccc(F)c(Cl)c2)CC1 | -21.4
9 | Cc1ccc(S(=O)(=O)N2CCN(CCOc3c(Cl)cccc3Cl)CC2)cc1C | 5.39
10 | CC(=O)c1ccc(NC(=S)NNC(=O)NC2CCCCC2)cc1 | 8.27
11 | CNC(=O)Nc1cccc(-c2ccnc(C)n2)c1 | 8.17
12 | COc1cccc(CN2CCNC(=O)C2CC(=O)NCCCN2CCCC2=O)c1 (stereo not drawn) | 15.7
13 | CCC(C)(C)NC(=O)C(C(C)C)N(CC1CCCO1)C(=O)CNS(=O)(=O)c1ccccc1 (stereo not drawn) | -2.21
14 | COc1cc(/C=C2/NC(=O)N(Cc3ccccc3F)C2=O)ccc1Oc1ccc([N+](=O)[O-])cn1 | 8.97
15 | COc1ccccc1/C=C\C=N\n1c(-c2ccc(Cl)cc2Cl)n[nH]c1=S | 25.5
16 | O=[N+]([O-])c1ccc(Cc2cncc(O)c2)cc1 | -17.3
17 | O=C(NCc1cn2ccsc2n1)c1c(F)cccc1Cl | 7.32
18 | CC(C(=O)Nc1cccc([N+](=O)[O-])c1)[n+]1ccccc1.[Br-] (stereo not drawn) | 1.78
19 | CCC(O)C1CCN(C(=O)c2ccc(OC3CCN(Cc4ccccn4)CC3)cc2)CC1 (stereo not drawn) | 21
20 | Cc1ccc(C2N(c3ccc(F)cc3)C(=O)C3CCCN32)cc1 (stereo not drawn) | 5.75
21 | COC(=O)c1ccccc1Oc1cc(C(F)(F)F)nc(-c2ccccn2)n1 | 17
22 | CC(=O)c1cnn(-c2nc3c(C)cccc3s2)c1C | -5.76

Row | SMILES | hERG current change (%, negative = inhibition) at 10uM [%]
23 | COC(=O)c1ccc(CN(c2ccc(OC)cc2)S(=O)(=O)c2ccccc2)cc1 | 17.8
24 | O=C(Cc1ccsc1-c1ccccc1)NO | 5
25 | COc1cc(-c2[nH]ncc2CN2CCSCC2)cc(OC)c1OC | -9.26
26 | CCOc1cc(/C=N\NC(=O)Cn2nnc3ccccc32)ccc1O | -1.1
27 | CCOC(=O)C1(CCc2ccccc2)CCN(CC(O)CO)CC1 (stereo not drawn) | -40.3
28 | CCC(C)NC(=O)c1ccc(CSCc2ccccc2Cl)o1 (stereo not drawn) | -0.946
29 | c1ccc(-c2nnc(SCc3nc4ccccc4[nH]3)o2)cc1 | -27.4
30 | Cc1ccc(SCC(=O)OCC(=O)N(CCC#N)c2ccccc2)cc1C | -10.4
31 | O=C(NCc1ccco1)c1cc2n(n1)C(C(F)(F)F)CC(c1ccc(Br)cc1)N2 (stereo not drawn) | -3.23
32 | CCC(=O)NC(=S)Nc1ccc(NC(=O)COc2ccc(Cl)c(C)c2)cc1 | 3.25
33 | COCCNC(=S)NN(c1ccccc1)c1ccccc1 | -1.18
34 | CCOC(=O)c1oc2cccc(O)c2c1CN(Cc1ccccc1)C(C)=O | -22.9
35 | CC1=CC=CC2=NC(=O)CC(C)(C(=O)N(CC(=O)NC3CCCC3)Cc3ccc(Cl)cc3)N12 (stereo not drawn) | 22.3
36 | CCCCOc1ccc(-c2ncc(Cl)cn2)cc1 | -4.65
37 | COc1ccc(CCNC(=O)C2CCN(c3nn4c(=O)cc(C)nc4s3)CC2)cc1OC | -4.87
38 | CC(CN1CCCC1)OC(=O)C(c1ccccc1)c1ccccc1.Cl (stereo not drawn) | -42.2
39 | Cc1ccc2nc(C)c(C(=O)N/N=C/c3ccccc3[N+](=O)[O-])cc2c1 | 2.51
40 | CCCn1c2ccccc2c2cn[nH]c(=O)c21 | 12
41 | CCc1ccccc1NC(=O)CCNS(=O)(=O)c1ccc2c(c1)CCC(=O)N2 | 3.47
42 | CCOC(=O)c1c(CSc2ccccc2)n(C)c2ccc(O)c(CN3CCOCC3)c12 | -46.3
43 | Cc1ccc(CN2C(=O)[C@@H]3Cc4c([nH]c5ccccc45)C(C)(C)N3C2=O)cc1 | 7.62
44 | Cc1ccc(C(C(=O)NC(C)(C)C)N(Cc2ccccc2)C(=O)c2snc(C(N)=O)c2N)o1 (stereo not drawn) | 1.93

Row | SMILES | hERG current change (%, negative = inhibition) at 10uM [%]
45 | COc1ccc(N2C(=O)CC(N3CCN(S(=O)(=O)c4ccc(Cl)cc4)CC3)C2=O)cc1 (stereo not drawn) | -16.7
46 | S=C(NCc1ccncc1)Nc1ccc(Cl)c(Cl)c1 | -13.1
47 | Cc1ccc(C(=O)CSc2nnc(-c3ccccc3N)n2C)cc1C | 1.51
48 | CCOc1ccc(NS(=O)(=O)c2ccc(NC(=O)c3cccnc3)c(OC)c2)cc1 | -8.26
49 | CN(C)/N=C/c1ccc(OC(=O)c2cccc([N+](=O)[O-])c2)cc1 | -0.174
50 | Cc1ccc(CNC(=O)C2CCCN(S(C)(=O)=O)C2)cc1 (stereo not drawn) | 16.2
51 | O=C(NCC(=O)N1CCCCC1)c1ccc(Cl)cc1Cl | 5.57
52 | COc1ccc(C2CC(c3ccccc3)=NN2c2ccc(C(N)=O)cc2)cc1 (stereo not drawn) | 14.3
53 | CC(=O)C1=C(O)C(=O)N(c2ccc(Br)cc2)C1c1cccc(F)c1 (stereo not drawn) | -4.01
54 | O=C(N/N=C/c1cccs1)c1cnccn1 | -1.91
55 | COc1ccc(-c2c3c(=O)n(C)c(=O)n(C)c3cn2-c2cccc(OC)c2)cc1 | 16
56 | CCC1C(C#N)=C(SC)NC2=C1C(=O)CC(C)(C)C2 (stereo not drawn) | -6.36
57 | O=C(COc1ccccc1)Nc1nnc(S(=O)(=O)Nc2ccccc2)s1 | 14.8
58 | CCCc1nnc(NC(=O)CS(=O)(=O)c2ccccc2)s1 | 15
59 | Cc1ccc(C)c(N2CCN(C(=O)CCS(=O)(=O)c3ccc4c(c3)CCN4C(=O)C3CC3)CC2)c1 | -17.6
60 | Cc1ccc(NC(=O)C2=CC=CN3CCS(=O)(=O)N=C23)cc1 | -6.7
61 | C=CCN1C(=O)OC2(CCCCC2)C1(C)O (stereo not drawn) | 3.67
62 | CCOc1cc(/C=C(\C#N)C(=O)Nc2cccc(C(=O)O)c2)ccc1OCc1ccccc1Cl | 11.9
63 | C[C@]12CCC3C(CC[C@H]4CCCC[C@]34C)C1CC[C@@]2(O)CNCCO (stereo partly drawn) | 15.6
64 | Cc1cc(C)c(S(=O)(=O)N2C=CC(C(F)(F)F)=NCC2)c(C)c1 | 17.7
65 | O=C(Nc1nnc(CCc2ccccc2)s1)c1ccco1 | 2.12
66 | CCn1c(SCC(=O)N/N=C/C=C/c2ccco2)nnc1-c1ccc(OC)cc1 | -37.8

Row | SMILES | hERG current change (%, negative = inhibition) at 10uM [%]
67 | Cc1cc(C)c(C(=O)C(C)OC(=O)Cc2n[nH]c(=O)c3ccccc23)cc1C (stereo not drawn) | 4.39
68 | CCN1CCCC1CNC(=O)C(=O)Nc1ccccc1 (stereo not drawn) | -9.35
69 | CC1CCCN(C(=O)Cc2cn(Cc3cccc(Cl)c3)c3ccccc23)C1 (stereo not drawn) | -5.42
70 | Cn1nc(C(=O)NNC(=O)C(CCC(N)=O)NS(=O)(=O)c2ccc(Cl)cc2)c2ccccc2c1=O (stereo not drawn) | -0.0818
71 | CCOC(=O)C1(Cc2cccc(OC)c2)CCN(Cc2cccc(OCC)c2O)CC1 | -56.8
72 | CCN(C(=O)c1cccc(NC(=O)c2ccccc2)c1)C1CCCCC1 | -23.2
73 | CCOCCn1ccc2c(OCC(=O)Nc3ccc(OC)c(OC)c3)cccc2c1=O | 3.27
74 | CN(NC(=O)c1ccco1)c1nc2ccccc2nc1C(F)(F)F | 0.871
75 | O=C(Nc1ccccc1)N1CCN(S(=O)(=O)c2ccccc2)CC1 | 12.4
76 | C=CCN(c1ccccc1)S(=O)(=O)c1cccc(C(=O)NC2CCN(Cc3ccccc3)CC2)c1 | -65.3
77 | Cc1ccc2c(Cl)c(C(=O)Nc3nn[nH]n3)sc2c1 | 7.7
78 | Cc1ccc(Cn2c(SCC(=O)NCC3CCCO3)nc3c2c(=O)n(C)c(=O)n3C)cc1 (stereo not drawn) | -28.4
79 | Cn1c(/C(C#N)=C/C2CC=CCC2)nc2ccccc21 (stereo not drawn) | -30.6
80 | N#Cc1ccc(C(=O)Nc2ccc3ccccc3c2)cc1 | 24.4
81 | CCn1cc(/C=N\NC(=O)c2ccc3c(c2)c(C)c(C)n3Cc2ccccc2)c(C)n1 | -13.1
82 | COc1ccc(-c2nc3nc(N)nn3cc2C)cc1F | 9.62
83 | OCCC#Cc1ccc(CN2CCN(Cc3ccccc3)C(CCO)C2)cc1 (stereo not drawn) | -15
84 | C/C(N)=C(/C#N)C(=O)COC(=O)c1ccc(O)cc1 | 5.92
85 | CCOC(=O)c1c(CSc2ccc(C)cc2)n(C)c2cc(Br)c(O)c(CN(C)C)c12.Cl.O | -54.9
86 | O=C(C1=C[C@H](c2coc3ccccc3c2=O)C[C@H](OCc2ccc(CO)cc2)O1)N1CCOCC1 | -49.7
87 | C[C@@H]1O[C@@H](O[C@H]2[C@H](Oc3cc(O)c4c(c3)OC(c3ccc(O)cc3)CC4=O)O[C@H](CO)[C@@H](O)[C@@H]2O)[C@H](O)[C@H](O)[C@H]1O (stereo partly drawn) | 9.52
